In the supplement of paper PMC9446081:
About 220 (0.56%) of roughly 39,000 compounds showed activity. This is one part of the list.

System: Escherichia coli K-12 BW25113
Assay: relative growth (OD600 normalised to plate interquartile mean) (fraction); higher = less growth inhibition, active = 0.2 or less
Conditions: 50 µM; LB; incubation time: overnight (16-24 h)
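Also: static incubation at 37 °C against the wild-type strain, values averaged over two biological replicates.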

Structure (SMILES) | relative growth
Cc1cc(=O)nc(SCC(N)=O)[nH]1 | inactive: 1.01
CN1CCN(C(=O)C[C@H]2CC[C@@H]3[C@H](COC[C@@H](O)CN3C(=O)C3CCCC3)O2)CC1 | inactive: 1.01
CC(=O)N[C@@H]1[C@@H](Oc2ccc(C(C)=O)cc2)O[C@H](CO)[C@H](O)[C@@H]1O | inactive: 1.02
COc1ccc(S(=O)(=O)N(C)C[C@@H]2Oc3ccc(NS(C)(=O)=O)cc3C(=O)N([C@H](C)CO)C[C@@H]2C)cc1 | inactive: 0.978
COC(=O)[C@H](Cc1ccccc1)N1CC2=C[C@@H]([C@@H](O)CCn3cc(-c4ccc(C(=O)NO)s4)nn3)n3c(=O)n(C)c(=O)n3[C@@H]2[C@@H](C2CC2)O1 | inactive: 0.992
C[C@H]1CN([C@@H](C)CO)S(=O)(=O)c2ccc(C#CC3(O)CCCC3)cc2O[C@H]1CN(C)C(=O)Nc1cccc(F)c1 | inactive: 1
C[C@@H]1CN([C@H](C)CO)S(=O)(=O)c2ccc(C#Cc3ccccc3)cc2O[C@@H]1CN(C)C(=O)CN(C)C | inactive: 0.947
Cc1cc(C)c2nc(-c3ccccn3)cc(C(=O)Nc3ccc(S(=O)(=O)Nc4onc(C)c4C)cc3)c2c1 | inactive: 0.929
C[C@@H]1CN([C@@H](C)CO)C(=O)Cc2cc(N(C)C)ccc2O[C@H]1CN(C)C(=O)Nc1ccc2c(c1)OCO2 | inactive: 1.01
C[C@@H]1CN([C@H](C)CO)C(=O)c2cc(NC(=O)NC3CCCCC3)ccc2O[C@@H](C)CCCCO[C@H]1CN(C)Cc1ccc2c(c1)OCO2 | inactive: 0.967
CCCNC(=O)Nc1ccc2c(c1)OC[C@@H](C)N(Cc1ccc(-c3ccccn3)cc1)C[C@H](C)[C@@H](OC)CN(C)C2=O | inactive: 0.985
COc1ccc(CN(C)C[C@@H]2OCCCC[C@H](C)Oc3ccc(NC(=O)Cc4ccccc4)cc3C(=O)N([C@H](C)CO)C[C@H]2C)cc1 | inactive: 0.976
C[C@H](CO)N1C[C@H](C)[C@@H](CN(C)C(=O)c2ccncc2)Oc2cc(C#Cc3ccncc3)ccc2S1(=O)=O | inactive: 0.956
Cc1ccc(S(=O)(=O)N(C)C[C@@H]2OCCCC[C@@H](C)Oc3ccc(NC(=O)Nc4ccccc4)cc3C(=O)N([C@H](C)CO)C[C@@H]2C)cc1 | inactive: 0.988
C[C@H]1CN([C@@H](C)CO)C(=O)c2cc(NC(=O)Nc3ccccc3)ccc2O[C@H]1CN(C)CC1CCCCC1 | inactive: 0.986
COc1ccc(NC(=O)Nc2ccc3c(c2)C(=O)N([C@@H](C)CO)C[C@H](C)[C@H](CN(C)C(=O)Nc2ccc(C(F)(F)F)cc2)O3)cc1 | inactive: 1.02
C[C@H]1CN([C@@H](C)CO)C(=O)c2cc(NC(=O)CCN3CCOCC3)ccc2O[C@@H]1CN(C)C(=O)Nc1ccc2c(c1)OCO2 | inactive: 1.02
CCN(CC)CCCn1c(/C=C/c2ccc(O)c(OC)c2)cc(/C=C/c2ccc(O)c(OC)c2)nc1=S | inactive: 1.01
COc1cccc(NC(=O)N[C@H]2C=C[C@H](CC(=O)N3CCOCC3)O[C@@H]2CO)c1 | inactive: 0.917
COc1ccc(CN(C)C[C@@H]2OCCCC[C@H](C)Oc3ccc(NS(=O)(=O)c4ccccc4)cc3C(=O)N([C@@H](C)CO)C[C@H]2C)cc1 | inactive: 1.03
C[C@H](CO)N1C[C@H](C)[C@@H](CN(C)CC2CC2)OCCCC[C@H](C)Oc2ccc(NC(=O)CCCCCC(=O)Nc3ccccc3N)cc2C1=O | inactive: 0.979

Structure (SMILES) | relative growth
C[C@@H]1CN([C@H](C)CO)C(=O)Cc2cc(NC(=O)C3CC3)ccc2O[C@@H]1CN(C)S(=O)(=O)c1cccs1 | inactive: 0.995
Cn1c(=O)c2c(ncn2CCO)n(C)c1=O | inactive: 0.973
CC(C)NC(=O)Nc1ccc2c(c1)CC(=O)N([C@@H](C)CO)C[C@H](C)[C@@H](CN(C)S(=O)(=O)c1ccc(Cl)cc1)O2 | inactive: 1.01
CC(C)NC(=O)N(C)C[C@H]1Oc2ccc(NC(=O)CCCN(C)C)cc2C(=O)N([C@H](C)CO)C[C@H]1C | inactive: 0.999
CN1CCN(CCO)C(=O)C12CCN(S(=O)(=O)C1CC1)CC2 | inactive: 1
CN1C(=O)c2cc(NS(=O)(=O)c3cccc(F)c3)ccc2OC[C@@H]2O[C@H](CC(=O)NCCN3CCCCC3)CC[C@H]21 | inactive: 0.982
Cc1ccc(S(=O)(=O)Nc2ccc3c(c2)CC(=O)N([C@@H](C)CO)C[C@@H](C)[C@@H](CN(C)Cc2ccncc2)O3)cc1 | inactive: 1
CCCCCCCC/C=C\CCCCCCCC(N)=O | inactive: 0.861
CNC(=O)C[C@@H]1CC[C@H]2[C@@H](COC[C@@H](O)CN2C(=O)Nc2ccc3c(c2)OCO3)O1 | inactive: 0.996
C[C@@H]1CN([C@@H](C)CO)C(=O)c2cc(NS(=O)(=O)c3ccc(Cl)cc3)ccc2O[C@@H](C)CCCCO[C@@H]1CN(C)Cc1ccc(C(F)(F)F)cc1 | inactive: 1.03
C[C@@H]1CN([C@@H](C)CO)C(=O)c2cc(-c3cccnc3)cnc2O[C@H]1CN(C)Cc1ccc(Oc2ccccc2)cc1 | inactive: 1.01
Cn1c(=O)[nH]c(=O)c2c(=O)cc[nH]c21 | inactive: 1.03
COc1ccccc1C#Cc1cnc2c(c1)C(=O)N([C@H](C)CO)C[C@H](C)[C@@H](CN(C)C(=O)c1ccc3c(c1)OCO3)O2 | inactive: 0.962
O=[N+]([O-])c1ccc(/C=C/CN(C/C=C/c2ccc([N+](=O)[O-])cc2)CCCCNS(=O)(=O)c2cccc3cnccc23)cc1 | inactive: 1.03
C[C@@H]1CN([C@@H](C)CO)C(=O)c2cc(NS(=O)(=O)c3cccs3)ccc2O[C@@H](C)CCCCO[C@H]1CN(C)Cc1ccc2c(c1)OCO2 | inactive: 1
CCN(CC)CCNC(=O)c1ccc(N)cc1.Cl | inactive: 1.01
CC(C)CN1CCN[C@@H](C)C1=O | inactive: 0.978
Cl.N=C(N)NCCCC(N)C(=O)O (configuration not stated) | inactive: 0.867
O=C(C[C@H]1C[C@H]2c3cc(NS(=O)(=O)c4ccc(F)cc4)ccc3O[C@H]2[C@@H](CO)O1)NCc1ccncc1 | inactive: 1.02
C[C@@H]1CCCCO[C@H](CN(C)Cc2ccncc2)[C@@H](C)CN([C@@H](C)CO)C(=O)c2cc(NC(=O)Nc3cccc4ccccc34)ccc2O1 | inactive: 1
CC(C)(C)NC[C@@H](O)CSc1nc(-c2ccc(C(N)=O)s2)cs1 | inactive: 0.996

Structure (SMILES) | relative growth
Cc1ccc(/C=N/N(C)C2=NCCN2)o1 | inactive: 0.968
CNC[C@H](O)c1ccc(O)c(O)c1 | inactive: 1.02
CCC(=O)Nc1ccc2c(c1)OC[C@@H](C)N(C(=O)CN1CCOCC1)C[C@@H](C)[C@H](OC)CN(C)C2=O | inactive: 1.02
O=C1O[C@@H](c2ccccc2)[C@@H](c2ccccc2)N2[C@@H](c3ccc(OCCO)cc3)[C@]3(C(=O)Nc4ccc(C#CC5=CCCCC5)cc43)[C@@H](C(=O)N3CCCCCCC3)[C@H]12 | inactive: 1.02
C[C@H]1CCCCO[C@H](CN(C)C(=O)Nc2ccc3c(c2)OCO3)[C@@H](C)CN([C@@H](C)CO)C(=O)c2cc(NS(=O)(=O)c3ccc(Cl)cc3)ccc2O1 | inactive: 1.03
C[C@H](CO)N1C[C@H](C)[C@H](CN(C)Cc2ccc(Oc3ccccc3)cc2)Oc2cc(Br)ccc2S1(=O)=O | inactive: 1.02
C[C@@H]1CN([C@@H](C)CO)C(=O)c2cc(NS(=O)(=O)c3ccccc3)ccc2O[C@@H]1CN(C)Cc1ccc(-c2ccccc2)cc1 | inactive: 1.03
Cc1ccc(S(=O)(=O)Nc2ccc3c(c2)CC(=O)N([C@@H](C)CO)C[C@H](C)[C@H](CN(C)Cc2ccc(C(F)(F)F)cc2)O3)cc1 | inactive: 0.889
C[C@@H]1CN([C@H](C)CO)C(=O)c2cccc(NS(=O)(=O)c3ccc(F)cc3)c2O[C@@H]1CN(C)C(=O)Nc1ccc(C(F)(F)F)cc1 | inactive: 0.976
C[C@@H]1CN([C@H](C)CO)C(=O)c2cccc(NS(=O)(=O)c3ccccc3)c2O[C@H]1CN(C)CC1CC1 | inactive: 1.02
CC(C)NC(=O)N(C)C[C@H]1OCc2cn(nn2)CCCC(=O)N([C@H](C)CO)C[C@H]1C | inactive: 1
C[C@H](CO)N1C[C@H](C)[C@H](CN(C)Cc2ccc(Cl)c(Cl)c2)Oc2ccc(NC(=O)Nc3ccccc3)cc2C1=O | inactive: 1.03
C[C@@H]1CCCCO[C@@H](CN(C)Cc2ccc(C(=O)O)cc2)[C@H](C)CN([C@H](C)CO)C(=O)c2cc(NS(=O)(=O)c3cccs3)ccc2O1 | inactive: 0.997
CCS(=O)(=O)Nc1ccc2c(c1)C(=O)N(C)C[C@H](OC)[C@@H](C)CN(Cc1nccs1)[C@@H](C)CO2 | inactive: 1.02
COc1ccc(CN(C)C[C@@H]2OCCCC[C@@H](C)Oc3ccc(NC(=O)C4CCCCC4)cc3C(=O)N([C@@H](C)CO)C[C@H]2C)cc1 | inactive: 1
Cc1ccc(S(=O)(=O)N(C)C[C@@H]2Oc3ccc(NC(=O)Cn4cnnn4)cc3CC(=O)N([C@H](C)CO)C[C@@H]2C)cc1 | inactive: 0.99
CC(=O)Nc1nonc1N1CCCC1=O | inactive: 0.997
C[C@H](CO)N1C[C@H](C)[C@H](CN(C)C(=O)Cc2cccnc2)Oc2cc(C#CC3(O)CCCC3)ccc2S1(=O)=O | inactive: 1.02
C[C@@H]1CCCCO[C@H](CN(C)C(=O)Nc2cccc3ccccc23)[C@@H](C)CN([C@@H](C)CO)C(=O)c2cc(NC(=O)CCCN(C)C)ccc2O1 | inactive: 0.984
C[C@@H]1CN([C@@H](C)CO)C(=O)Cc2cc(NC(=O)Cn3cnnn3)ccc2O[C@H]1CN(C)C(=O)Nc1ccccc1 | inactive: 0.981
